Test results taken from the supplement of paper PMC11876631.
Substitutions are numbered along the chain they refer to. Numbers in names are those of the source. ± gives the standard deviation of the averaged measurements. Laboratory Escherichia coli strains with one amino-acid change in an essential protein, pooled on minimal glucose agar with carbenicillin or gentamicin at twice the control MIC (plus kanamycin and chloramphenicol for the plasmids), 48 h. Fold change of barcode share against drug-free plates; higher = less susceptible. Active = above 20 in both replicates (the paper's putatively resistant). '<' = one read or none on drug, '>' = one read or none on a drug-free plate. Shares are relative, so most strains fall below 1 when a few take over. Listed are strains with at least 15 reads on both drug-free plates, and hits; most hits rest on fewer reference reads. Replicate rank correlation about 0.5. Edits are read from barcodes.

B1: serB M309P (protein)
chain: MPNITWCDLPEDVSLWPGLPLSLSGDEVMPLDYHAGRSGWLLYGRGLDKQRLTQYQSKLGAAMVIVAAWCVEDYQVIRLAGSLTARATRLAHEAQLDVAPLGKIPHLRTPGLLVMDMDSTAIQIECIDEIAKLAGTGEMVAEVTERAMRGELDFTASLRSRVATLKGADANILQQVRENLPLMPGLTQLVLKLETLGWKVAIASGGFTFFAEYLRDKLRLTAVVANELEIMDGKFTGNVIGDIVDAQYKAKTLTRLAQEYEIPLAQTVAIGDGANDLPMIKAAGLGIAYHAKPKVNEKAEVTIRHADLPGVFCILSGSLNQK
B2: serC V171A (protein)
chain: MAQIFNFSSGPAMLPAEVLKQAQQELRDWNGLGTSVMEVSHRGKEFIQVAEEAEKDFRDLLNVPSNYKVLFCHGGGRGQFAAVPLNILGDKTTADYVDAGYWAASAIKEAKKYCTPNVFDAKVTVDGLRAVKPMREWQLSDNAAYMHYCPNETIDGIAIDETPDFGADVVAAADFSSTILSRPIDVSRYGVIYAGAQKNIGPAGLTIVIVREDLLGKANIACPSILDYSILNDNGSMFNTPPTFAWYLSGLVFKWLKANGGVAEMDKINQQKAELLYGVIDNSDFYRNDVAKANRSRMNVPFQLADSALDKLFLEESFAAGLHALKGHRVVGGMRASIYNAMPLEGVKALTDFMVEFERRHG
B3: serC V171W (protein)
chain: B2 chain with A171W
B4: serC V171Q (protein)
chain: B2 chain with A171Q
B5: serC V171P (protein)
chain: B2 chain with A171P
B6: serC L70A (protein)
chain: B2 chain with L70A, A171V
B7: serC L70W (protein)
chain: B2 chain with L70W, A171V

What follows are proteins tested against Escherichia coli (laboratory strain) (assay: barcode share on antibiotic plates over drug-free plates; higher = less susceptible). Conditions: antibiotic: carbenicillin; 2× MIC (3.1 µg/mL).
Protocol: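 A pool of E. coli strains, each edited to carry one amino-acid change in an essential protein, was grown for 48 h on minimal glucose agar with or without antibiotic; strain barcodes were sequenced; mean of two replicates.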
With B1 the “fold change of barcode share” value was 2.78 ± 0.48.
In the case of B2, the “fold change of barcode share” value is reported as 0.371 ± 0.022.
B3 was tested, and the “fold change of barcode share” value was 0.487 ± 0.38.
B4 was tested, and the “fold change of barcode share” value was 0.541 ± 0.043.
B5 was tested, and the “fold change of barcode share” value was 0.293 ± 0.034.
For B6, the “fold change of barcode share” value was 0.807 ± 0.38.
With B7 the “fold change of barcode share” value was 0.424 ± 0.15.

Same assay, conditions: antibiotic: gentamicin; 2× MIC (MIC 0.45 µg/mL)
For B2, the “fold change of barcode share” value was 0.197 ± 0.27.
In the case of B3, the “fold change of barcode share” value is reported as 0.0943 ± 0.12.
In the case of B5, the “fold change of barcode share” value is reported as 0.0314 ± 0.032.
With B6 the “fold change of barcode share” value was under 0.00936.
In the case of B7, the “fold change of barcode share” value is reported as under 0.00621.
